# From article PMC12136788
# Some of the results follow.
# B1: chr3:129431351:129431457:-|3pUTR|ENSG00000129071|unk|FALSE|unique (ssRNA)
# RNA: GGGAGUUCUACAGUCCGACGAUCACUUCAAAAAAGCUUAAUUAAGUACAACCAACCACCUUUCCAGCCAUAGAGAUUUUAAUUAGCCCAACUAGAAGCCUAGUGUGUGUGCUUUCUUAAUGUGUGUGCCAAUGGUGGAUCUUUCAACAGAGGAUUGAGCAUCA
# B2: chr4:69204429:69204649:-|CDS|ENSG00000213759|control|control|control (ssRNA)
# RNA: GGGAGUUCUACAGUCCGACGAUCCCAUUGUUUUUUGAUCAACCUGAUAACAUUGCUCACAUGAAGGCCAAGGGAGCAGCUGUUAGAUUGGACUUCAACACAAUGUCGAGUACAGACCUGCUGAAUGCACUGAAGACAGUAAUUCAACAGAGGAUUGAGCAUCA
# B3: ENSG00000136451:be:win_1001|CDS|ENSG00000136451|bound_else_gene|NA|bound_elsewhere_windowed (ssRNA)
# RNA: GGGAGUUCUACAGUCCGACGAUCACCAAAAGCAGCAGCAGCAGCAGCAGCAGCAGCAGCAGCAGCAGCAACAACAACAACAACAACAUGUGACAAGCUGGCCAGGGAAGCAAGUAGAAACACUGAGACUGUGGGAAGAAGCUGCAACAGAGGAUUGAGCAUCA
# B4: ENSG00000119522:stop:overlap|stop_codon|ENSG00000119522|stop_codon|NA|stop_codon (ssRNA)
# RNA: GGGAGUUCUACAGUCCGACGAUCUGGGCGAGUACGCUGGCAGUGACAAACUGUACCAUCAGUGGCUCUCCACUGUCCGGAUUUAGAUGUUAAGGAAGGCAGCCUACCAGAGAGAUUUAAAAAAACACCACAGAAAACCAAGGACAACAGAGGAUUGAGCAUCA
# B5: chr11:35230299:35231094:+|3pUTR|ENSG00000026508|msi1|FALSE|unique (ssRNA)
# RNA: GGGAGUUCUACAGUCCGACGAUCGCCUGGGGAGUCCCUCAAAAGGUUAAAGGGAUUCCCAUCAUUGGAAUCUUAUCACCAGAUAGGCAAGUUUAUGACCAAACAAGAGAGUACUGGCUUUAUCCUCUAACCUCAUAUUUUCUCCAACAGAGGAUUGAGCAUCA
# B6: chr5:72208839:72208948:+|3pUTR|ENSG00000131711|msi1_unk|total|mutant (ssRNA)
# RNA: GGGAGUUCUACAGUCCGACGAUCCUUGCCUCUCUUCCGUCACCUGUCACAGGAGGUUCCUGCUCAGUAAUGAUAUUGUGAGUCCGGAUAAUAACUUUUUUUUUUUGUGCUUCAGAUUCCGAAGAAAAGAUCCUGUUUCCAUUUCAACAGAGGAUUGAGCAUCA
# Target: MSI1 full-length (mouse, UniProt Q61474 1-362)
# Assay: nsRBNS (natural sequence RNA bind-n-seq); RBNS binding buffer (assumed for nsRBNS): 25 mM Tris pH 7.5, 150 mM KCl, 3 mM MgCl2, 0.01% Triton X-100, 500 ug/ml BSA, 20 U/ml SUPERase-In, 4 C; UNK is unkempt and MSI1 is Musashi-1; names of the RNAs are library labels; protein concentration not given here; high values mean tight binding
# Sequence of UniProt Q61474 (Q61474 whole entry): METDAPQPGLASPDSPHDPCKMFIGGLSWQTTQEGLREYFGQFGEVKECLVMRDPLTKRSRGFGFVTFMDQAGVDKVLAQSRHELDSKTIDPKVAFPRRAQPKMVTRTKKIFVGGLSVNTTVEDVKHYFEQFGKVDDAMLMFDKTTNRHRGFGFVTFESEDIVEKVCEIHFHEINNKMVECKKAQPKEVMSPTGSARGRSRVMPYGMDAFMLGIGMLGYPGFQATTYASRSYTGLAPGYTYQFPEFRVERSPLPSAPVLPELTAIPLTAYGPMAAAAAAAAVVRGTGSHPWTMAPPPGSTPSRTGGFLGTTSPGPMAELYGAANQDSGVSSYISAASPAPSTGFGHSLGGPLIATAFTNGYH
row,Binder,binding signal [enrichment R]
1,B1,9.08
2,B2,0.341
3,B3,0.597
4,B4,0.799
5,B5,0.404
6,B6,0.349
